PMC4336329 (PLoS ONE, 2015)
In all, about 310,000 compounds went through this assay and about 14,000 (4.5%) showed an effect of 50% or more. The effect is printed as a negative number. Some of the results follow.

biological target: human ether-à-go-go-related gene (hERG) potassium channel (human, UniProt Q12809); assay: primary screen, population patch clamp on CHO cells stably expressing hERG
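Also: peak tail current of the secondary pulse compared with the same well before compound.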

human ether-à-go-go-related gene (hERG) potassium channel, sequence (Q12809 whole entry, looked up): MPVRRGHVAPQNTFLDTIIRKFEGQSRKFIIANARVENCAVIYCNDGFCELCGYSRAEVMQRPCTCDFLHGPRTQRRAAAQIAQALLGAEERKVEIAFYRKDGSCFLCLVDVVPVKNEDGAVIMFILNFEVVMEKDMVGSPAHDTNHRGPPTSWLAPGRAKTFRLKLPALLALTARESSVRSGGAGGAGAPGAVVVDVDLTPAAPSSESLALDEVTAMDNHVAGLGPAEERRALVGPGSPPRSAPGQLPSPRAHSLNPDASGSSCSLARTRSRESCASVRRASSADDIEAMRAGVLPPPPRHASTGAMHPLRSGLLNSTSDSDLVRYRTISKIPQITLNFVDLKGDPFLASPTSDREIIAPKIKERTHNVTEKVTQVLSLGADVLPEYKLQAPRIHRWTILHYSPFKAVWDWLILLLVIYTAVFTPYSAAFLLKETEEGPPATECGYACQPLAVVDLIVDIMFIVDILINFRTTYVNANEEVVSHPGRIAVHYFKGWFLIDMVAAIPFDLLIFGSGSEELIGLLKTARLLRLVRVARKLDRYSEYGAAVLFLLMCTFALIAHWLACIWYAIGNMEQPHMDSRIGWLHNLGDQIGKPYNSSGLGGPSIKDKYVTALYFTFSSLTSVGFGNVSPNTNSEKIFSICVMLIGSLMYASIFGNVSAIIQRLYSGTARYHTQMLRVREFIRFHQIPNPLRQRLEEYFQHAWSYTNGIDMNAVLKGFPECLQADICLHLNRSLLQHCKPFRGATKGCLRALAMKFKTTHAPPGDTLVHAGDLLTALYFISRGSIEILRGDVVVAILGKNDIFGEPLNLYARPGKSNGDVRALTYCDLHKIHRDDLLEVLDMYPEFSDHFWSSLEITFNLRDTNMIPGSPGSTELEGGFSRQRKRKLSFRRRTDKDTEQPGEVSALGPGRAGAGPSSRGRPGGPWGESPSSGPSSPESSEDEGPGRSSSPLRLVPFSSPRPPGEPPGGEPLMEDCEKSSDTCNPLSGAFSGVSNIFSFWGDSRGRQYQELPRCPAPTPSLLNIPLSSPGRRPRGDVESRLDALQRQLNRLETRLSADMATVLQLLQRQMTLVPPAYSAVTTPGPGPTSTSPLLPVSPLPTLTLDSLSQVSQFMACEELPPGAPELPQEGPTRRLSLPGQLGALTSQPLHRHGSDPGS

SMILES | hERG current change (%, negative = inhibition) at 10uM [%]
CC1CCCCN1C(=O)c1cc(-c2ccc(Cl)c(Cl)c2)on1 (stereo not drawn) | -14.1
Cc1nc(-c2nnc(SCC(=O)Nc3cc(C(F)(F)F)cc(C(F)(F)F)c3)n2C)cs1 | 16
CC1CC(C)CN(C(=O)CSc2nc3ccsc3c(=O)n2Cc2ccccn2)C1 (stereo not drawn) | -19.2
CCOc1ccc(S(=O)(=O)NC(C)C(=O)NCc2ccccn2)cc1 (stereo not drawn) | 18.8
C=CCn1c(SCc2ccc(Br)cc2F)nc2cc(C(=O)O)ccc2c1=O | 78.1
Cc1ccc(SCCN2CCC(O)CCC2=O)cc1 (stereo not drawn) | 5.87
CCOC(=O)C1CCCN(C(=O)c2ccc(Cl)c(S(=O)(=O)N3CCCCC3)c2)C1 (stereo not drawn) | -13.8
O=C(O)CCN(CC(=O)c1ccc(Cl)cc1)S(=O)(=O)c1ccc([N+](=O)[O-])cc1 | -13.7
O=C(CN(Cc1ccco1)C(=O)CNS(=O)(=O)c1ccc(F)cc1)NCc1ccco1 | -8.87
Cc1ccc(C)c(Cn2nnc3c(=O)[nH]c(C(=O)Nc4ccc(F)cc4)nc32)c1 | 28.5
O=c1cc(C(F)(F)F)[nH]c2ccccc12 | 10.9
Cc1ccc(S(=O)(=O)NC(=O)Nc2cc(C)no2)cc1 | -1.51
COc1cc(OC)cc(-c2nc3nc(C)c(CCC(=O)NCC(OC)OC)c(C)n3n2)c1 | -16.8
CCC(=O)Oc1ccc(C(=O)Nc2cccc(C(=O)NCC(C)C)c2)cc1 | -14.5
Cc1cc(=O)[nH]c2ccc(S(=O)(=O)NC3CCCCC3)cc12 | 3.64
CN(C(=O)CSc1nnc(-c2ccccc2F)n1N)C1CCCCC1 | -5.06
CCOc1cc(NC(=S)NCC(C)C)c(OCC)cc1NC(=O)c1cccs1 | 13.2
Cc1ccc(NS(=O)(=O)c2c(C)[nH]c(=O)[nH]c2=O)c(Br)c1 | 13.7
C[C@@H](C(=O)Nc1ccc2ccccc2c1)[C@H]1C[C@]1(C)[C@H](NC(=O)OCc1ccccc1)c1ccccc1 | 3.4
CC1(C)CC(=O)C=C(NCCN2CCN(C(=S)Nc3ccccc3)CC2)C1 | -10.2
COC(=O)c1ccccc1SC1CC(=O)N(c2cccc(C)c2)C1=O (stereo not drawn) | 23.6
Cc1nn2c(N3CCCC3)cc(C(C)C)nc2c1-c1ccccc1 | 3.92

SMILES | hERG current change (%, negative = inhibition) at 10uM [%]
COc1ccc(S(=O)(=O)Nc2ccc3c(c2)CCC3)cc1 | 16.9
Cc1cnc(NC(=O)C2CC=CCC2)s1 (stereo not drawn) | 25.6
CCOC(=O)/C(C(C)=O)=C1/OC(=O)c2ccccc21 | 4.32
Cc1c(CCC(=O)N[C@@H](C)C(=O)O)c(=O)oc2c(C)c3oc4c(c3cc12)CCCC4 | -2.64
Cc1ccc(C(=O)NCC(=O)OCc2nnc(-c3ccccc3)o2)cc1 | -31.6
C=CCNC(=O)c1c(CSc2ccc(F)cc2)noc1C(=O)NCCC | 3.36
COCCNC(=O)C(OC(=O)c1cccs1)c1ccc(F)cc1 (stereo not drawn) | -49.9
COc1ccc(S(=O)(=O)/N=C2/C=CC(=O)C(C)=C2C)cc1 | -16.8
O=C(NCc1ccccc1)C1=C[C@H](c2coc3ccccc3c2=O)C[C@H](OCc2ccc(CO)cc2)O1 | -38.1
Cc1cc(=O)[nH]c(SCC(=O)Nc2ccc3c(c2)CCC3)c1C#N | -6.4
Cc1ccc(NC(=S)N/C(=N/S(=O)(=O)c2ccccc2)c2ccccc2)cc1 | 10.8
Cc1cc(C(=O)Nc2ccc([N+](=O)[O-])cn2)cs1 | 1.69
O=C(/C=C/c1cccs1)N1CCC2(CC1)Oc1ccc(F)cc1C(=O)C21CC(c2ccccc2)=NO1 (stereo not drawn) | -5.15
CN(C(=O)c1nn(C)c2c1CS(=O)(=O)c1ccccc1-2)c1cccc(Cl)c1 | -2.41
CCCc1nc2c(=O)[nH]c3ccccc3c2o1 | 0.612
COc1cc(C(=O)NC2(C(F)(F)F)NC(=O)N(CCCc3ccccc3)C2=O)cc(OC)c1OC (stereo not drawn) | -23.8
CC(C(=O)c1c[nH]c(C(=O)N=CN(C)C)c1)c1ncc(C(F)(F)F)cc1Cl (stereo not drawn) | 8.52
O=C(/C=C\Nc1cccc(F)c1)c1cccs1 | 11.7
CCCOc1ccc(C(CC(=O)O)NC(=O)C(c2ccccc2)c2ccccc2)cc1 (stereo not drawn) | 9.67
Cc1noc(C)c1S(=O)(=O)N1CCC(C(=O)Nc2ccccn2)CC1 | -14.5
CC(C)(C)c1ccc(O)c(N)c1 | 8.01
O=P(C(=Nc1ccc(Cl)cc1)N1CCOCC1)(N1CCOCC1)N1CCOCC1 | -17.6

SMILES | hERG current change (%, negative = inhibition) at 10uM [%]
CC(=O)Nc1ccc(NC(=O)CSCc2ccccc2Cl)cc1 | 10.4
CC(C)N1CCN(c2ccncc2S(=O)(=O)N2CCOCC2)CC1 | 20.7
CC(C)CC(NS(=O)(=O)c1ccc2c(c1)oc(=O)n2C)C(=O)NC1CCCc2ccccc21 (stereo not drawn) | 7.33
OCCN(Cc1ccccc1)Cc1ccccc1F | -24.3
O=C(Cc1cccs1)N1CCN=C1SCc1cccc(F)c1 | -13.1
O=Cc1cn[nH]c1-c1cccc([N+](=O)[O-])c1 | 5.68
COCCNC(=O)/C(C#N)=C/c1c(N2CC(C)OC(C)C2)nc2ccccn2c1=O (stereo not drawn) | -0.67
NS(=O)(=O)c1ccc(NC(=O)COC(=O)c2cc([N+](=O)[O-])ccc2Cl)cc1 | 11.7
CCc1ccc(OCc2ccc(C(=O)NCc3ccccn3)o2)cc1 | -29
CCOc1cc(/C=C2\SC(=S)N(NC(=O)c3cccnc3)C2=O)ccc1O | 17.1
CCC1SC2=NC(C)=C(C(=O)OC)C(c3cccs3)N2C1=O (stereo not drawn) | -5.95
O=C(CN1C(=O)CSc2ncccc21)NCCN1CCOCC1 | -12.3
Cc1ccc(C(=O)N(CC(=O)Nc2ccc(Cl)c(Cl)c2)Cc2ccco2)cc1 | 11.8
O=C(COc1ccc([N+](=O)[O-])cc1)N1CCc2ccccc2C1 | -54.5
CC(=O)Nc1ccc(N2CCOCC2)c(Cl)c1 | 5.06
CN(c1ccccc1)S(=O)(=O)c1cccc(NS(=O)(=O)c2cccc(C(=O)O)c2)c1 | -3.52
COc1ccccc1NC(=S)Nc1cccc2cnccc12 | -2.14
Cn1ncc([N+](=O)[O-])c1C(=O)Nc1nccs1 | 12.2
COc1ccc(NC(=S)N2CCC(Cc3ccccc3)CC2)cc1 | -12.7
CC1CCCN(S(=O)(=O)Cc2ccc(Cl)cc2)C1 (stereo not drawn) | -5.5
O=C(NCc1n[nH]c(=S)n1-c1ccc(Cl)c(Cl)c1)c1ccc(S(=O)(=O)N2CCCCC2)cc1 | 16.7
CSCCC(NC(=O)c1ccco1)C(=O)OCc1cc([N+](=O)[O-])cc2c1OCOC2 (stereo not drawn) | -45.8

SMILES | hERG current change (%, negative = inhibition) at 10uM [%]
COc1cccc(/C=N/Nc2snc(SC)c2C#N)c1O | 17.6
COc1cc(OC)cc(C(=O)N[C@H](C(=O)OCC(=O)Nc2ccc(C(C)C)cc2)C(C)C)c1 | 8.19
Cc1cc(NC(=O)CS(=O)(=O)c2cn(Cc3ccccc3Cl)c3ccccc23)no1 | -1.29
CN(C)CCCn1c(N)c(S(=O)(=O)c2ccccc2)c2nc3ccccc3nc21 | -51.1
CC(=O)c1cc2c(cc1NC(=O)CN1Cc3ccccc3C1=O)OCO2 | 3.08
COC(=O)c1ccc(NC(=O)CN(c2ccc3c(c2)OCO3)S(C)(=O)=O)cc1 | -1.62
Cc1ccc(-c2ccc(NC(=O)C3C4C=CC(C4)C3C(=O)O)cc2)o1 (stereo not drawn) | 22.1
O=C(COc1ccc(Cl)cc1)NCCNC(=O)c1cnccn1 | 5.3
COc1cccc(CN2CCNC(=O)C2CC(=O)N(C)Cc2cnccn2)c1OC (stereo not drawn) | 32.6
O=C(NCC1CCCCC1)c1cccnc1 | 27.1
COc1ccc(NC(=O)c2ccc(NC(=O)C3CC3)cc2)cc1 | 3.05
O=C1CCCN2N=C(SCC(=O)Nc3cccc(F)c3)SC2=N1 | -20.5
CC(=O)Nc1ccc(SCC(=O)Nc2cc(C)on2)cc1 | 13.7
Cc1c(C(=O)N2CCCC2)c(S(=O)(=O)Nc2ccccc2)c(C)n1C | 14.5
CC(C)n1nc(Cc2cccc3ccccc23)c(C#N)c1N | -11.8
CCC(C)N(C(=O)CCC(=O)Nc1cc(C)on1)C(C(=O)NC(C)(C)C)c1ccccc1Cl (stereo not drawn) | -11.3
CCOC(=O)CN(C)C(=O)CCc1nnc(-c2ccsc2)o1 | 13.4
COc1ccc(CN(CC(=O)NC2CCCCC2)C(=O)CCCC(=O)Nc2ccccn2)cc1 | -11.6
COc1ccc2oc(C(=O)OCC(=O)N3CCCC3=O)c(C)c2c1 | 12.3
COc1ccc(C2=CC(=O)C[C@H](c3ccc(OC)cc3)C2)cc1 | -33
Cc1c(C)c2ccc(OC(C)C(=O)N3C[C@H]4C[C@@H](C3)c3cccc(=O)n3C4)c(C)c2oc1=O (stereo partly drawn) | 16.8
